Data reported in PubChem BioAssay (NCATS).
This list was built around the results that the source calls inconclusive (neither active nor inactive); the mix of calls is not that of the screen. A potency beside an inconclusive call is a rough fit, not a confirmed value. Active and inactive are the calls of the source. Calls come from the whole dose curve; as a rule, active = well fitted cell-killing curve with a large enough effect; inconclusive = small, poorly fitted or top-dose-only effect, or effect the other way; inactive = no such curve, though single readings can be large or run the other way.

Assays:
[1] = Viability qHTS for spleen associated tyrosine kinase inhibitor (SYKi) naive MV4-11 cells (AID 1963823); details: MV4-11 AML viability, CellTiter-Glo luminescence, 72 h; series mostly up to 45 µM; note: nearly all actives have a fitted effect of over 40% in size
In short: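 Luminescence from CellTiter-Glo, developed 10 min at room temperature, gave viability of MV4-11 cells never exposed to SYK inhibitor. Cells (500/well) had been incubated with compounds for 72 hr under standard culture conditions.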

[2] = Viability qHTS for spleen associated tyrosine kinase inhibitor (SYKi) drug resistant MV4-11 cells (AID 1963824); details: SYKi-resistant MV4-11 viability, CellTiter-Glo, 72 h; series mostly up to 45 µM; note: nearly all actives have a fitted effect of over 35% in size
In short: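 SYK inhibitor-resistant MV4-11 AML cells, 500 per well, added to predispensed compounds and incubated 72 hr at 37 C, 5% CO2. Viability measured by CellTiter-Glo luminescence after 10 min at room temperature.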
Potency is the fitted concentration of half-maximal effect; tags give direction and shape of the fitted curve.

Row | SMILES | Potency [1] | Potency [2]
1 | O=C(c1cccc(Cl)c1F)N1CCN(Cc2cccc(Nc3nccs3)n2)CC1 | inconclusive: 0.13 µM [cytotoxic, full curve, poor fit] | inconclusive: 0.651 µM [cytotoxic, partial curve, poor fit]
2 | CC(=O)OC1CC2C3(C)CCC(OC(=O)CC(=O)O)C(C)(C)C3CCC2(C)C2(C)CCC(C3(C)CCC(=O)O3)C12 (stereo not given) | inconclusive: 7.09 µM [cytotoxic, partial curve] | active: 6.32 µM
3 | C=C1CC2(C(=O)O)CC1CCC2C1(C)CCCC2(C)C(=O)OC(O)C21 (stereo not given) | inconclusive: 0.453 µM [cytotoxic, partial curve, poor fit] | inconclusive: 14.3 µM [cytotoxic, single point]
4 | CC1(C)C=CN2C(=O)C3=CCCN3C(=O)[C@@H]2C[C@@]12Nc1ccccc1C2=O | inconclusive: 0.0718 µM [cytotoxic, full curve, poor fit] | inactive
5 | NC(=O)c1cccc(-c2cc(OC(=O)NC3CCCCC3)ccc2O)c1 | inconclusive: 16.4 µM [cytotoxic, partial curve, poor fit] | inconclusive: 16.4 µM [cytotoxic, partial curve, poor fit]
6 | CC1CC2(O)OC(=O)C3=C2C(CCC3)[C@@]12C[C@@H](c1ccoc1)OC2=O (stereo not given in full) | active: 0.321 µM | inactive
7 | C=C1CC23CC1(O)CCC2C1=CC2OC(=O)C(C)(C2O)C1C3C(=O)O (stereo not given) | inactive | inactive
8 | NS(=O)(=O)Cc1noc2ccccc12 | inconclusive: 0.0009 µM | inactive
9 | CCN1CCC[C@@H]1CNC(=O)c1ccc2c(c1)NC(=O)/C(=C/c1ccccc1F)S2 | inconclusive: 1.16 µM [cytotoxic, full curve] | inconclusive: 2.59 µM [cytotoxic, full curve]
10 | O=C(O)CNC(=O)CNC(=O)CNC(=O)CSC(=O)c1ccccc1 | inconclusive: 33.5 µM [cytotoxic, single point] | inactive
11 | C=C1C(=O)OC2CC(C)=C(C(C)CCCO[C@@H]3O[C@H](CO)[C@@H](O)[C@H](O)[C@H]3O)C(O)C12 (stereo not given in full) | inactive | inactive
12 | C[C@@H]1C[C@H]2O[C@@]3(O[C@@H]2C(C)(C)O)C(O)[C@@]2(C)C4CCC5C(C)(C)[C@@H](O[C@H]6OC[C@H](O)[C@@H](O)[C@@H]6O)CC[C@@]56C[C@@]46CC[C@]2(C)C13 (stereo not given in full) | inconclusive: 4.85 µM [cytotoxic, single point] | inconclusive: 4.85 µM [cytotoxic, partial curve]
13 | CC1(C)CC2C(O)C3=C(CC(C)(O)C2C1)C(=O)OC3 (stereo not given) | inactive | inconclusive: 2.59 µM [cytotoxic, partial curve, poor fit]
14 | Cc1ccc(C)c(NC(=O)CNS(=O)(=O)c2ccc3[nH]c(=O)oc3c2)c1 | inactive | inactive
15 | CC/C=C\[C@H](O)[C@H](O)C1=C(C)C(=O)[C@]2(O1)C(=O)N[C@@](OC)(C(=O)c1ccccc1)[C@@H]2O | inactive | inactive
16 | O=C(Nc1ccc(S(=O)(=O)Nc2nccs2)cc1)C(c1ccccc1)c1ccccc1 | inconclusive: 5.8 µM [rising, single point] | inconclusive: 23.1 µM [cytotoxic, single point]
17 | C=CC1(C)CC2=CCC3C(C)(C(=O)O)CCCC3(C)C2CC1OC(C)=O (stereo not given) | inconclusive: 18 µM [cytotoxic, single point] | inconclusive: 10.1 µM [cytotoxic, single point]
18 | CN([C@@H](Cc1ccc(OS(=O)(=O)c2cccc3cnccc23)cc1)C(=O)N1CCN(c2ccccc2)CC1)S(=O)(=O)c1cccc2cnccc12 | inconclusive: 1.64 µM [cytotoxic, single point] | inconclusive: 1.16 µM [cytotoxic, partial curve]
19 | CCCCC[C@H](O)/C=C/[C@H]1[C@H](O)CC(=O)[C@@H]1CCCCCCC(=O)O | inconclusive: 0.0148 µM [cytotoxic, full curve] | inconclusive: 0.0417 µM [cytotoxic, full curve]
20 | CCOC(=O)OC(C)OC(=O)[C@@H]1N2C(=O)[C@@H](NC(=O)[C@H](N)c3ccccc3)[C@H]2SC1(C)C (stereo not given in full) | inconclusive: 5.96 µM [cytotoxic, partial curve] | inconclusive: 11.9 µM [cytotoxic, partial curve]
